Hit rate of the full screen: of about 48,000 compounds, about 1,200 (2.5%) were called active. Roughly 2% stayed inconclusive and do not appear here.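 Rule for the calls: active = activation of at least 60% and not above a set upper limit (about 1 call in 100 departs from these limits); inconclusive = activation of 40% to 60%, or above that upper limit; inactive = activation under 40%.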 The list shows a part of the results.
These compounds were tested against Probable G-protein coupled receptor 32 (Homo sapiens) (UniProt O75388) (assay: qHTS for Agonists of Human Resolvin D1 Receptor DRV1). Conditions: CHO-K1 GPR32 beta-arrestin PathHunter luminescence, 90 min; at 76.9 µM; stronger effect = higher value; zero percent set by DMSO-only wells.
Sequence of UniProt O75388 (O75388 whole entry, looked up): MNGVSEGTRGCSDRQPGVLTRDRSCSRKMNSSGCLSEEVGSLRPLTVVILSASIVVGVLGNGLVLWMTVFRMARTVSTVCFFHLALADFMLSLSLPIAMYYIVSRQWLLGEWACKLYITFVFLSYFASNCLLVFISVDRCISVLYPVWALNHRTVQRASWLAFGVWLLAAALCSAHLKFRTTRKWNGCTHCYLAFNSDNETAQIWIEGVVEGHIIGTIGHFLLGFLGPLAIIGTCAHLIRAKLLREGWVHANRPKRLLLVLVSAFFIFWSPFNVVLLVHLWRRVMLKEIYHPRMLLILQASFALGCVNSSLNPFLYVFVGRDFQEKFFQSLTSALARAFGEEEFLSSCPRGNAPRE
How it was run: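 CHO-K1 cells stably expressing ProLink-tagged GPR32 and Enzyme Activator-tagged beta-arrestin were seeded at 2,500 cells/well overnight, exposed to compounds for 90 min at 37 °C, then read by beta-Gal complementation chemiluminescence after 1 h detection reagent.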
For `CC(C)Cc1ccc(S(=O)(=O)Nc2ccc3[nH]c(=O)[nH]c3c2)cc1`, the activation was inactive: 12.8%.
In the case of `O=c1c2oc3ccccc3c2n(Cc2cccc(Cl)c2)c(=O)n1Cc1ccc2c(c1)OCO2`, the activation is reported as inactive: -5.92%.
With `COC(=O)c1cc2oc(C)cc2n1Cc1cccc(Cl)c1` the activation was inactive: -29.8%.
With `Cc1ccc(-n2c(=O)c3c(c4cc(C)ccc4n3C)n(CC(=O)NCCC3=CCCCC3)c2=O)cc1` the activation was inactive: -13.6%.
`O=C(NCc1cccc(Cl)c1)c1ccc(CS(=O)Cc2ccccc2Cl)o1` (stereo not drawn) was tested, and the activation was inactive: -15%.
In the case of `COc1ccccc1OCC(=O)NCC1(N2CCOCC2)CCCCC1`, the activation is reported as inactive: -4.16%.
For `CC(C)(C=O)Cc1cc(C(C)(C)C)c(O)c(C(C)(C)C)c1`, the activation was inactive: -30.8%.
In the case of `CCOC(=O)c1nc(Nc2ccc(OC)cc2)c2ccccc2n1`, the activation is reported as inactive: -2.93%.
For `O=S(=O)(NCc1ccc(F)cc1)c1ccc2[nH]c3c(c2c1)CCCCC3`, the activation was inactive: 6.8%.
In the case of `Cc1ccccc1Nc1c(-c2cccc(O)c2)nc2ccc(Br)cn12`, the activation is reported as inactive: -21.8%.
With `CC(C)CCNC(=O)c1ccc(Cn2c(=O)c3cccn3c3cccnc32)cc1` the activation was inactive: -9.01%.
In the case of `CCOc1ccc(CNC(=O)c2ccc3c(c2)sc2nc(-c4ccc(OC)cc4)cn23)cc1`, the activation is reported as inactive: 13%.
With `COc1cc(OC)c(NC(=O)CSC2=Nc3ccccc3N=C(c3ccc(F)cc3)C2)cc1Cl` the activation was inactive: 5.43%.
In the case of `Cc1cccc(Nc2nc(Nc3cccc(C)c3)nc(N3CCOCC3)n2)c1`, the activation is reported as inactive: -23.9%.
`Cc1cc2c(n1-c1ccc(C(=O)NCC(C)c3ccccc3)cc1)CCCC2` (stereo not drawn) was tested, and the activation was inactive: -18.6%.
In the case of `Cc1ccc(-c2nn(-c3cccc([N+](=O)[O-])c3)c3c2cnc2ccc(F)cc23)cc1`, the activation is reported as inactive: 12.3%.
For `CC(=O)[C@H]1CCC2C3CC=C4C[C@@H](OS(=O)(=O)O)CC[C@]4(C)C3CC[C@@]21C` (stereo partly drawn), the activation was inactive: 14.3%.
With `Cc1sc(C2C(C#N)=C(N)N(c3cccc(Cl)c3)C3=C2C(=O)CCC3)cc1CN1CCOCC1` (stereo not drawn) the activation was inactive: -1.1%.
With `Cc1ccc(CNC(=O)c2cc(S(=O)(=O)N3CCCC(C)C3)cn2C)cc1` (stereo not drawn) the activation was inactive: -1.82%.
With `COc1ccc(-n2c(=O)c3c(c4cc(OC)ccc4n3C)n(CC(=O)NCC3CCCO3)c2=O)cc1` (stereo not drawn) the activation was inactive: 22.3%.
In the case of `CCN(CCCNC(=O)c1ccc(Sc2ccc(C)cc2)c(NC(C)=O)c1)c1cccc(C)c1`, the activation is reported as inactive: -19.5%.
For `COc1ccc(-c2n[nH]c3c2C(c2ccc(Cl)cc2Cl)NC3=O)cc1` (stereo not drawn), the activation was active: 87%.
For `CC(CCO)Nc1nc2c(c(=O)n(C)c(=O)n2C)n1Cc1ccc(Br)cc1` (stereo not drawn), the activation was inactive: -9.66%.
`Cc1ccc(F)cc1NC(=O)CCc1c(C)nn(-c2ccc(N3CCCCC3)nn2)c1C` was tested, and the activation was inactive: -4.48%.
In the case of `CCOc1cccc(C(=O)Nc2ccc3oc(-c4ccc(C(C)(C)C)cc4)nc3c2)c1`, the activation is reported as inactive: -1.55%.
`COc1ccc(NC(=O)Cn2c(=O)n(-c3cccc(C)c3)c(=O)c3c2c2cc(C)ccc2n3C)cc1OC` was tested, and the activation was inactive: 18.2%.
`Cc1ccc2oc(-c3ccc(C)c(NC(=O)c4ccc5c(c4)OCCO5)c3)nc2c1` was tested, and the activation was inactive: 0.0312%.
`C#CCSc1nc2sc3c(c2c(=O)n1-c1cccc(OC)c1)CCN(C(C)=O)C3` was tested, and the activation was inactive: -3.76%.
`Cc1ccc(S(=O)(=O)Nc2ccc(-c3ccc(N4CCCCCC4)nn3)cc2)cc1C` was tested, and the activation was inactive: -6.38%.
In the case of `CCc1nn2c(-c3ccco3)ccnc2c1-c1ccc(F)cc1`, the activation is reported as inactive: -4.52%.
In the case of `CCOC(=O)c1ccc(-c2ccc(/C=C(\C#N)C(=O)Nc3c(C)cccc3Cl)o2)cc1`, the activation is reported as inactive: -30.4%.
In the case of `COc1cc(Cl)c(NC(=O)c2cc(S(=O)(=O)N3CCOCC3)cn2C)c(OC)c1`, the activation is reported as inactive: -19.3%.
For `O=c1c2sc3ccccc3c2n(Cc2ccc(F)cc2)c(=O)n1Cc1ccccc1`, the activation was inactive: 10.2%.
In the case of `CCc1cccc(CC)c1NC(=O)CCS(=O)(=O)c1ccc(Br)cc1`, the activation is reported as inactive: -11.3%.
`COc1ccc(-c2ccc(NS(=O)(=O)c3ccccc3)cc2)nn1` was tested, and the activation was inactive: 4.22%.
With `CCOc1ccc(-c2cc(C(=O)NCc3ccc(OCC)c(OC)c3)[nH]n2)cc1` the activation was inactive: -3.64%.
For `Cc1ccc(NC(=O)CSc2ncccc2C(=O)Oc2ccccc2Cl)cc1Cl`, the activation was inactive: -6.56%.
With `COc1ccc2[nH]cc(CCNC(=O)Nc3c(C)cccc3C)c2c1` the activation was inactive: 32.2%.
`Cc1cc(C)n2nc(SCC(=O)Nc3ccc(O)cc3)nc2n1` was tested, and the activation was inactive: -2.75%.
With `Cc1ccccc1-c1nc2c(c(SCc3cccc(Cl)c3)n1)Cc1c(CO)cnc(C)c1O2` the activation was inactive: 7.31%.
With `Cc1cc(NC(=O)CN(C)S(=O)(=O)c2ccc3c(c2)CCCC(=O)N3)ccc1Br` the activation was inactive: 49.2%.
With `CCOC(=O)c1cc(-c2ccccc2)n(CCC(=O)Nc2ccc(OC)c(Cl)c2)c1C` the activation was inactive: -30.7%.
`COc1cc(C)ccc1OCCSc1nc2ccc(NC(=O)c3ccc4c(c3)OCO4)cc2s1` was tested, and the activation was inactive: -2.39%.
`COc1cc(-c2nc(Cn3nnc(C(=O)Nc4ccccc4C)c3C)c(C)o2)cc(OC)c1OC` was tested, and the activation was inactive: 17.3%.
`CCc1ccc(NC(=O)Cn2c(=O)n(CCCC(=O)NCc3ccccc3OC)c(=O)c3ccccc32)cc1` was tested, and the activation was inactive: -6.24%.
`Cc1ccc(C)c(NC(=O)c2ccc(=O)n(Cc3ccc(F)cc3)c2)c1` was tested, and the activation was inactive: 24.7%.
With `COc1ccc(C)cc1NC(=O)c1ccc2c(c1)N(Cc1cccc(Cl)c1)C(=O)c1ccccc1S2=O` (stereo not drawn) the activation was inactive: -27.5%.
For `CNC1CCCN(c2c(F)cc3c(=O)c(C(=O)O)cn(C4CC4)c3c2OC)C1` (stereo not drawn), the activation was inactive: -12%.
In the case of `CC(=O)N1c2ccc(S(=O)(=O)N3CCCCCC3)cc2CC1C(=O)NCc1cccc(F)c1` (stereo not drawn), the activation is reported as inactive: -26.4%.
With `Clc1cccc(N2CCN(c3nc4ccccc4c4nc(-c5cccnc5)nn34)CC2)c1` the activation was inactive: 0.0211%.
For `Cc1ccc(S(=O)(=O)c2nc(-c3cccs3)oc2SC(C)c2ccccc2)cc1` (stereo not drawn), the activation was inactive: -24.7%.
For `CCS(=O)(=O)N1CCc2cc(C(=O)N3CCN(c4ccccc4)CC3)ccc21`, the activation was inactive: 23.8%.
With `CCCCC(=O)Nc1cc(-c2nc3ccccc3o2)ccc1OC` the activation was inactive: 11.5%.

— PubChem BioAssay AID1346428 (National Center for Advancing Translational Sciences (NCATS), 2018)
Note: 0% is about no effect.
